Experimental data from PubChem BioAssay AID1346428 (National Center for Advancing Translational Sciences (NCATS), 2018).
The whole screen tested about 48,000 compounds, of which about 1,200 (2.5%) were called active. Roughly 2% stayed inconclusive and do not appear here.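 The calls were made as follows: active = activation of at least 60% and not above a set upper limit (about 1 call in 100 departs from these limits); inconclusive = activation of 40% to 60%, or above that upper limit; inactive = activation under 40%.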 The list shows a part of the results.

molecular target: Probable G-protein coupled receptor 32 (Homo sapiens) (UniProt O75388); test: qHTS for Agonists of Human Resolvin D1 Receptor DRV1; conditions: CHO-K1 GPR32 beta-arrestin PathHunter luminescence, 90 min; at 76.9 µM; hits give high values; zero percent set by DMSO-only wells; also: 0% is about no effect
Summary of the method: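 Beta-arrestin recruitment read-out: luminescence from complemented beta-Gal in CHO-K1 GPR32 PathHunter cells, measured 1 h after detection reagent at ambient temperature following 90 min compound exposure at 37 °C; DMSO served as basal (EC0) control.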

Sequence of UniProt O75388 (O75388 whole entry, looked up): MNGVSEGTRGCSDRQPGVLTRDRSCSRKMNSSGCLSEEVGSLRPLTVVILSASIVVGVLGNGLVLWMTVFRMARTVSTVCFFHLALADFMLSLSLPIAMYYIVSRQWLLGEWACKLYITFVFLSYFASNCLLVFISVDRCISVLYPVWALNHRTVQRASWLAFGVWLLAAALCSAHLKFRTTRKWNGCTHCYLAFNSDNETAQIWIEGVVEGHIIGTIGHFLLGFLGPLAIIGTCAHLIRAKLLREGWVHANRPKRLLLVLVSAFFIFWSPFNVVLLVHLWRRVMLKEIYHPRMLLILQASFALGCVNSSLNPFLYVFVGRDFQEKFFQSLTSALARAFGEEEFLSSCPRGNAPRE

activation, inactive:
CCOc1ccc(Sc2cc(C(=O)NCc3ccc(C)cc3)c3ccccc3n2)cc1 -16%, COCCCn1c(=N)c(C(=O)NC2CCCC2)cc2c(=O)n3cccc(C)c3nc21 -3.81%, CCCCC(=O)N1CCc2cc(OC)c(OC)cc2C1COc1ccc(C(=O)OCC)cc1 (stereo not drawn) -18%, Cc1cccc(C(=O)n2nc(C)c(S(=O)(=O)N3CCOCC3)c2C)c1 20.1%, CCCCc1ccc(NC(=O)CSc2nc3ccccc3nc2N2CCCCC2)cc1 -5.35%, CCOC(=O)c1ccc(NC(=O)CS(=O)(=O)Cc2nc(-c3ccc(C)cc3)oc2C)cc1 -6.55%, CCCNC(=O)CCc1c(C)nc2nc(CNC(=O)c3ccccc3)nn2c1C -11%, COC(=O)c1c(-c2ccc(Cl)cc2)noc1N1CCN(c2ccc(C(C)=O)cc2)CC1 -5.55%, Cc1ccc(F)cc1NC(=O)CSc1nc(-c2cccs2)cc(C(F)(F)F)n1 5.63%, CCOc1ccc(NC(=O)C(CC)n2nc(C)c3c(C)n(-c4ccccc4)nc3c2=O)cc1 (stereo not drawn) -17.6%, COc1ccc(NC(=O)c2oc3ccccc3c2NC(=O)c2cc3ccccc3o2)c(OC)c1 -8.39%, Cc1ccc(NC(=O)CN2C(=O)CC(c3ccco3)Sc3ccccc32)cc1Cl (stereo not drawn) -44.4%, COc1cc(OC)cc(-n2c(=O)c3sccc3n(Cc3ccc(F)cc3)c2=O)c1 0.0212%, COc1cc(OC)c(NC(=O)Nc2ccc3c(c2)N(C)C(=O)c2ccccc2S3)cc1Cl -22.9%, Cc1ccc(-c2onc(C)c2C)cc1S(=O)(=O)N1CCN(c2ccccc2F)CC1 -14.4%, CCOc1ccccc1CNC(=O)c1ccc(-n2c(C)cc3c2CCC(C)C3)cc1 (stereo not drawn) -15.7%, COC(=O)c1ccccc1NC(=O)CCCn1nc(C)c2c(C)n(-c3ccccc3)nc2c1=O -12.1%, COc1cc(C(CC(=O)NCc2ccccc2Cl)N2Cc3ccccc3C2=O)cc(OC)c1OC (stereo not drawn) 3.46%, COc1cccc(NC(=O)CCNC(=O)Cn2cnc3ccccc3c2=O)c1 -3.11%, CCn1c2ccccc2c2cc(CN3CCN(Cc4cccc(Cl)c4)CC3)ccc21 -30.4%, Oc1cc(O)cc(/C=C/c2ccc(O)c(O)c2)c1 17.1%, COc1ccc(CCNC(=O)CN2C(=O)COc3ccc(S(=O)(=O)N4CCCC4)cc32)cc1OC -13.3%, Cc1ccc(Cl)cc1N1CCN(c2nc3ccccc3c3nc(-c4cccnc4)nn23)CC1 14.4%
